Measurements as given in paper PMC4336329 (PLoS ONE, 2015).
The whole screen tested about 310,000 compounds, of which about 2,200 (0.71%) showed an effect of 50% or more. Effects have a minus sign here. The list shows a part of the results.

These compounds were tested against human ether-à-go-go-related gene (hERG) potassium channel (human, UniProt Q12809) (assay: primary screen, population patch clamp on CHO cells stably expressing hERG).
human ether-à-go-go-related gene (hERG) potassium channel, sequence (Q12809 whole entry, looked up): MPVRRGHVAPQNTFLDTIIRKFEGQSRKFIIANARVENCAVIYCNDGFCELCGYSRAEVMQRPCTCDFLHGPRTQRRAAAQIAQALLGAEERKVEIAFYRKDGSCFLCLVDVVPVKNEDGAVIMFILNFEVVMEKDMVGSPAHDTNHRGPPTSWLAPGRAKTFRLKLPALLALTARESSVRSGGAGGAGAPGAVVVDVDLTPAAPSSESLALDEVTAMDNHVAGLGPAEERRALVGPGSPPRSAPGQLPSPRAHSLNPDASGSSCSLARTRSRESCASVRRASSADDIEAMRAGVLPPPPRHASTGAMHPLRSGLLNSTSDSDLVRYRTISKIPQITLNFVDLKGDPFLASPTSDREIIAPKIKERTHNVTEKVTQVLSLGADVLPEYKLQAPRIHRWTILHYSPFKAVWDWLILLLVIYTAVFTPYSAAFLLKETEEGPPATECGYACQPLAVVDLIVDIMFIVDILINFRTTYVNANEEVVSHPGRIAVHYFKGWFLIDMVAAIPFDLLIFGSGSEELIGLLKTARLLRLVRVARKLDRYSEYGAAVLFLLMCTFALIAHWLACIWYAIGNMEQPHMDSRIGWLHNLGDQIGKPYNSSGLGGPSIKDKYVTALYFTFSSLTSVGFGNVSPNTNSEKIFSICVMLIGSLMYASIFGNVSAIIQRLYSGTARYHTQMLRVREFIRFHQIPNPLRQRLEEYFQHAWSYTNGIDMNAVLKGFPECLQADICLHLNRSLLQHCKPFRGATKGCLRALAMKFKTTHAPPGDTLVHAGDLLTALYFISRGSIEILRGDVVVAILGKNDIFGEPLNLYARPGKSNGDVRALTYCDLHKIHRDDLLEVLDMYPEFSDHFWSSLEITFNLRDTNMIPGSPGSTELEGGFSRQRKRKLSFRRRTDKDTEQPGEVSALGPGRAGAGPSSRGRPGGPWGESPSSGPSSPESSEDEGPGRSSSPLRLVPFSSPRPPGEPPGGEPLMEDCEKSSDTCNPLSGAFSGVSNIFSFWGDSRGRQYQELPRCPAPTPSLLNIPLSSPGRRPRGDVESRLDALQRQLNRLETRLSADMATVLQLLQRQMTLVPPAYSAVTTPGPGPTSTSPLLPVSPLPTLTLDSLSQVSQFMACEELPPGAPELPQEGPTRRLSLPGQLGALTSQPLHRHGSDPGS

SMILES | hERG current change (%, negative = inhibition) at 1uM [%]
Cc1cccc(N(C(=O)c2nsc(Cl)c2Cl)C(C(=O)NC2CCCC2)c2ccc(O)cc2)c1 (stereo not drawn) | 4.38
Oc1cc(-c2ccccc2)c2ccccc2c1 | 12.5
C/C(=N\N=C(N)N)c1cccc(Cl)c1 | 7.13
CCOc1ccc(-c2cc(C(=O)N/N=C/c3cccnc3)c3ccccc3n2)cc1 | 7.73
CN(CC(=O)Nc1cccc(F)c1)C(=O)c1ccc(N2CCCCCC2)c([N+](=O)[O-])c1 | 12.6
CCc1cccc(C)c1NC(=O)C(c1ccc(O)cc1)N1CCC1=O (stereo not drawn) | 14.9
COc1ccc(CCNC(=O)CSc2nnnn2-c2ccccc2)cc1 | -1.76
COc1ccc(-c2onc(C)c2-c2cnn(-c3ccccc3)c2)c(O)c1C | 11.7
Cc1c(-c2ccco2)[n+](=O)c2c(n1[O-])CCC2 | 9.94
Cc1cc(NC(=O)CSCc2ccccc2C)no1 | 9.86
O=C(CN1C(=O)C2CCCCC2C1=O)N1CCN(c2ccccc2)CC1 (stereo not drawn) | 14.8
CC(OC(=O)c1cccc(S(=O)(=O)N(C)C)c1)C(=O)NCc1ccc2c(c1)OCO2 (stereo not drawn) | 9.34
CC(CC(=O)N(C)C1CCCCC1)S(=O)(=O)c1ccc2c(c1)NC(=O)CO2 (stereo not drawn) | 15.4
O=C(COc1ccc(S(=O)(=O)N2CCOCC2)cc1Cl)NCC1CCCO1 (stereo not drawn) | 12
CC(C)c1c(C(=O)N/N=C/c2ccc3c(c2)OCO3)nnn1-c1nonc1N | 15.5
O=C(CCCCCNC(=S)Nc1ccc(Cl)cc1)C[N+](=O)[O-] | 8.23
COc1ccc(N2CCn3c2nc2c3c(=O)n(CCCc3ccccc3)c(=O)n2C)c(OC)c1 | 10.2
COc1ccc(-c2cn[nH]c2-c2ccc(OCc3ccccc3F)cc2O)cc1OC | 6.47
Cc1c(C(=O)Nc2ccccc2)sc2nc(-c3ccccc3)cn12 | 6.33

SMILES | hERG current change (%, negative = inhibition) at 1uM [%]
CCc1cc(C(N)=O)c(NC(=O)c2ccc(OC)cc2)s1 | 1.31
Cl.c1ccc(OCCOCCN2CCc3ccccc3C2)cc1 | -10.1
O=C(NOCc1ccccc1)c1ccc(Cl)cc1Cl | 10.3
Cc1cc(C)cc(CN2C(=O)NC3(CCCCCC3)C2=O)c1 | 6.44
CS(=O)(=O)c1ccc2nc(NC(=O)C3COc4ccccc4O3)sc2c1 (stereo not drawn) | 7.41
S=C(Nc1ccc(Br)cc1Cl)NC1CCN(Cc2ccccc2)CC1 | 9.3
COc1ccccc1N1CCN(C(=O)c2cc(-c3cccc(Cl)c3)on2)CC1 | 2.1
CN1CCN(NC(=S)NC2CCCCC2)CC1 | 3.73
FC(F)(F)c1ccccc1NC(=S)N1CCc2ccccc2C1 | 15.6
CN1C(=O)C(c2nnc(Nc3cccc4ccccc34)s2)C2CC1(C)Oc1ccccc12 (stereo not drawn) | 2.76
CCOc1cc(CO)c(Br)cc1OCC(=O)O | 2.28
Cc1cccc(N2CCN(S(=O)(=O)c3cnc[nH]3)CC2)c1C | 17.8
Fc1ccc(Cn2nnnc2CN2CCC(n3nnc4cc(C(F)(F)F)ccc43)CC2)cc1 | -38.7
Cc1ccc([N+](=O)[O-])cc1NC(=O)Cc1ccc(F)cc1 | 13.7
N#Cc1nc(COc2ccccc2)oc1N1CCCCC1 | 4.84
NS(=O)(=O)c1ccc(CCNC(=O)CN2CCCCCC2)cc1 | 5.82
CC1(C)CC(=O)C2=C(C1)N(CC1CCCO1)C(=O)C2(O)C(F)(F)F (stereo not drawn) | 4.33
CCCOC(=O)COC(=O)c1ccccc1NC(=O)c1ccccc1 | 11
Cc1ccc(C(C)NC(=O)Cn2nc(C)c([N+](=O)[O-])c2C)cc1 (stereo not drawn) | 4.75

SMILES | hERG current change (%, negative = inhibition) at 1uM [%]
O=C(Nc1cccnc1)NC1CCCCC1 | 2.5
Cc1cc(C(=O)Nc2cc(S(C)(=O)=O)ccc2Cl)no1 | 10.1
C(=C/c1ccnc2nc(SC/C=C/c3ccccc3)nn12)/c1ccccc1 | 4.9
Cc1cccc(OCCOC(=O)CN2C(=O)NC3(CCCC3)C2=O)c1 | 8.79
O=C(c1cc2ccccc2oc1=O)N1CCN(S(=O)(=O)c2ccccc2)CC1 | 4.8
COc1cc(C(=O)NCc2nnc(SCC(=O)N3CCc4ccccc43)o2)cc(OC)c1OC | 6.06
CCOC(=O)NCCOC(=O)Nc1ccc(Cl)cc1 | -2.45
CCOC(=O)c1ccc(-c2c(C(=O)OCC)oc3cc(O)c(CC)cc3c2=O)o1 | 1.44
C=CCN=c1scc(-c2ccccc2)n1/N=C/c1ccccn1 | 8.91
Cc1noc(C(=O)Nc2ccc(Cl)cc2)c1Cl | 13
CCOC(=O)C1=C(NC(=S)NC(=O)c2ccccc2)c2ccccc2CC1C(C)C (stereo not drawn) | 17.9
Cc1ccc(-c2nnc(SCCC(=O)N3CCOCC3)o2)cc1 | 14.7
COc1cc(/C=N/NC(=O)c2ccc(=O)[nH]n2)ccc1O | 2.75
O=C(COc1ccc(Cl)cc1)NC1CCSC1=O (stereo not drawn) | 4.51
CCCCc1nc(NCCN2CCOCC2)c(C#N)c2c1COC(C)(C)C2 | 2.05
O=C(Nc1ccccc1)c1cccc(N2C(=O)C3C4CC(C(Br)C4Br)C3C2=O)c1 (stereo not drawn) | 12.6
O=CN1CCN(S(=O)(=O)c2ccc(S(=O)(=O)NC3CCCCC3)cc2)CC1 | 4.77
Cc1ccc(NC(=O)CN(c2ccc(Cl)cc2)S(=O)(=O)c2cc([N+](=O)[O-])ccc2Cl)c(C)c1 | 9.92
Cc1cc(/C=C(\C#N)C(=O)Nc2ccccc2)c(C)n1-c1ccc(C(=O)O)cc1 | -3.25
